Reference: patent US20200040103A1

Tests used:
[1] = target: recombinant human KLK5 (human) (UniProt Q9Y337); assay: array SPR imaging (IBIS MX96), immobilized ligand, human KLK5 injected 0-300 nM, 25 C
[2] = target: recombinant human KLK5 (human) (UniProt Q9Y337); assay: cell-based or functional assay
[3] = target: recombinant human KLK5 (human) (UniProt Q9Y337); assay: Ki(app) assay: IC50 (Z-VPR-pNA) at 0.5-0.0625 nM KLK5 plotted against KLK5 concentration, y-intercept

Sequence of UniProt Q9Y337 (Q9Y337 67-293): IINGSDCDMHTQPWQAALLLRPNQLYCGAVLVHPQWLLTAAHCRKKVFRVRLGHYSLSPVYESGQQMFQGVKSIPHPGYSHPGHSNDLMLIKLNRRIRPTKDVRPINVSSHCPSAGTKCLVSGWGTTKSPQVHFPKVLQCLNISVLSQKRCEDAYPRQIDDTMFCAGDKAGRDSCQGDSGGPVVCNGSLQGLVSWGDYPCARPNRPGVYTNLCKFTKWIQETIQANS

koff [1]: 0.00047 s⁻¹
IC50, KLK5 direct activity assay (Boc-VPR-AMC) [2]: 1.23 nM
IC50, KLK5 pro-KLK7 coupled assay [2]: 2.07 nM
IC50, pro-KLK1 LC/MS assay [2]: 0.58 nM
IC50, pro-KLK7 LC/MS assay [2]: 1.13 nM
Ki [3]: 1.28 nM
B1: SPINK9.SRE.Fc (Fc fusion)
chain: IESAKQTKQMVDCSHYKKLPPGQQRFCHREYDPICGSDGKTYKNDCFFCSKVKKTDGTLKFVHFGKCGNSVT[gap - human IgG1 Fc]
